Laboratory results: the supplement of paper PMC11417369
This is one part of the list.

These sequences were tested on PfAP2-HC AP2 domain (GST-tagged) (assay: gcPBM binding intensity (ln(normalized median fluorescence intensity)); higher = stronger DNA binding).
In short: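 In this array assay, P. falciparum DNA-binding domains with a GST tag, expressed in E. coli, were applied for 1 h to primer-extended double-stranded 36-bp intergenic genomic probes and negative controls on an Agilent 4 × 180k array. Bound protein was visualised with Alexa488 anti-GST antibody at 488 nm. Binding intensity is the highest Masliner-normalised natural-log median intensity across replicate spots of either probe orientation.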

First: TAATATATGTATTGCACACCTATAACCATTATTTCT [CACACA_site1498]
Second: AAAAGCAAGTTCCAGGGTACATATATATGAAAAAAC [XGTACX_site2408]
The “gcPBM binding intensity (ln)” value of the first is higher: 9.89 for the first, 9.82 for the second.

Going from “CCTAAAAAAAAGAAATGATATACATATGTATATATA [GTGCAC_negctrl_site100]” to “TATTTAAGAATATGAAGTACATATATTATTTAAAAA [XGTACX_site7897]”, the “gcPBM binding intensity (ln)” value falls from 9.6 to 9.44.

Going from “CATATAAATAAATACACACACACACGCCTTATAATT [CACACA_site7830]” to “TATATAGGTATCATTACACACATGTATACTTATTTG [CACACA_site7864]”, the “gcPBM binding intensity (ln)” value falls from 11.6 to 10.1.

Compared with “TTTTTCTTTCTCTATTGTACACATGGAAACACATAA [XGTACX_site4601]”, “TCTTGTTTTCAAATATGTACATAGAATAGACATTTT [XGTACX_site684]” is lower in “gcPBM binding intensity (ln)” value: 9.67 for the first, 9.24 for the second.

Going from “AAATATATAAAATATACACACAGTAATATATATATA [CACACA_site1385]” to “AAGTTTTATTTAAATTGTACTAAAATTTTTATATTA [XGTACX_site7065]”, the “gcPBM binding intensity (ln)” value falls from 9.9 to 9.48.

Going from “TATATATAAATATTCAGTACATAGTATTATTAAGTA [XGTACX_site1980]” to “ATAAAATGAACAAACACACACACATATATATATATA [CACACA_site2402]”, the “gcPBM binding intensity (ln)” value rises from 9.73 to 10.9.

First: TCTCAAGTTGTTAAAAAATAAAAACAATAAATCTAA [CACACA_negctrl_site165]
Second: TACAAAAAAAAAAAATAGATAAAATAATAATCAAAT [TGCATGCA_negctrl_site524]
The “gcPBM binding intensity (ln)” value of the first is lower: 9.41 for the first, 9.61 for the second.

Going from “ATATATTGAACATATTGTACATTTTGTTAATATTTT [XGTACX_site7622]” to “TGAATATTCCTATGCACACAAATTAAAATACATAAT [CACACA_site4403]”, the “gcPBM binding intensity (ln)” value rises from 9.65 to 9.88.

Compared with “ACAAATTTATACTTAAAACACACGTAATCATTTATA [CACACA_site1636]”, “TAAAATAATTTATGCATACACACATATATATATATA [CACACA_site4021]” is higher in “gcPBM binding intensity (ln)” value: 9.63 for the first, 9.84 for the second.

Going from “AACAATTGGAATAACGCATGCATTTATAATATAGAA [TGCATGCA_site298]” to “CAATTTTTTAAATGCACACAAAAGGAATAAATAAAT [CACACA_site544]”, the “gcPBM binding intensity (ln)” value rises from 9.75 to 9.8.

Compared with “AAGAAGAAATGCTTTGCATGCAAATTTTATGCCAAC [TGCATGCA_site721]”, “AGACAAAATGTTTGAAGTACTTTTTATCAAATTAAA [XGTACX_site8885]” is lower in “gcPBM binding intensity (ln)” value: 9.71 for the first, 9.51 for the second.

Compared with “AAAAAAAAAAAACACACACACACACCCATACATACA [CACACA_site707]”, “ATATATATTTATATTTGTACGAATTAAAATTTTTTA [XGTACX_site5200]” is lower in “gcPBM binding intensity (ln)” value: 11.4 for the first, 9.49 for the second.

Going from “ATTTAAAACAAAAGTAGTACGTCTAATAAATTCAAC [XGTACX_site4344]” to “TTATCAATAAAATGCACACACTGTAATATTATTAAA [CACACA_site6055]”, the “gcPBM binding intensity (ln)” value rises from 9.64 to 9.78.

Going from “ATAGCTTTTATTTAAAGTACAAAAAGGATGTTGAAA [XGTACX_site3810]” to “TTAATTATTATATAAGTGCAATAATAAAAAGTTGTA [GTGCAC_site9552]”, the “gcPBM binding intensity (ln)” value falls from 9.64 to 9.58.

Going from “TTGTTAATAAATAAATAAATAAATATATTTATATAT [GTGCAC_negctrl_site271]” to “TGATTTTTTCATATTCTACACACGTGAACAAATGTG [CACACA_site8987]”, the “gcPBM binding intensity (ln)” value rises from 9.33 to 9.71.

Compared with “TTAAGAATATCTTAGAGTACATTTTATCATCTTAAA [XGTACX_site8298]”, “TCTTTTTAAATTACTATAATACATTCATAAATTATA [GTGCAC_negctrl_site448]” is higher in “gcPBM binding intensity (ln)” value: 9.3 for the first, 9.54 for the second.

Compared with “AATTTATTTTTTTAATGTACATATGGTATAAATATA [XGTACX_site8012]”, “TGTTGATTTCTCAAATGTACTTTACTTTTCTTCAGA [XGTACX_site7916]” is higher in “gcPBM binding intensity (ln)” value: 9.36 for the first, 9.44 for the second.

First: TTTTTTTTTTTTAATTGTACATTTTATATAAACTTT [XGTACX_site6806]
Second: AATATATATATATGTACACACTCCAATACATATACA [CACACA_site2682]
The “gcPBM binding intensity (ln)” value of the first is lower: 9.61 for the first, 9.83 for the second.

First: TATATGTATGTATGTACACACAAAAAATGGAATATA [CACACA_site3717]
Second: TTTTTTTATTTTATAAAGCAAAAATAAGAATGAAAT [XGTACX_negctrl_site270]
The “gcPBM binding intensity (ln)” value of the first is higher: 10.1 for the first, 9.28 for the second.

Compared with “AGGGAATAAGTAAGGTGTACATAATTATGTTACTTT [XGTACX_site6152]”, “TACGAATTAAAAAAGAGTACAAATAAAATATCTACA [XGTACX_site7412]” is lower in “gcPBM binding intensity (ln)” value: 9.76 for the first, 9.59 for the second.

First: CATACATACATATATACACACATATATAATAATATA [CACACA_site2678]
Second: AATTAGCTCAAAGGTTGTACAAATATATTTTAATGG [XGTACX_site2352]
The “gcPBM binding intensity (ln)” value of the first is higher: 10.1 for the first, 9.6 for the second.

Going from “TTTTAAACACCAATCAAAAAAATATAAATATAAATA [TGCATGCA_negctrl_site552]” to “AATATAAATACTCCTACACACATATAAATATAAATA [CACACA_site7419]”, the “gcPBM binding intensity (ln)” value rises from 9.48 to 9.96.

Going from “TCCACATTAATGTAATGTACAAAATTAGAAAATAAA [XGTACX_site6287]” to “TTTTGATTAAGTGAATTTTTTTATTTATATAAATAT [TGCATGCA_negctrl_site479]”, the “gcPBM binding intensity (ln)” value rises from 9.51 to 9.56.

Compared with “TTACATTGTAAAAAGTGTACATATAATTTAATTAAT [XGTACX_site1834]”, “ATGTAGACTGAAACCACACACACATATATATATATA [CACACA_site606]” is higher in “gcPBM binding intensity (ln)” value: 9.67 for the first, 10.8 for the second.

Compared with “GGATTACAAATAGGTTGTACGTTTTTTTTTTTTTCT [XGTACX_site3605]”, “AAAAAAAATAATTTGCGTACATAAAAATTTATAGGA [XGTACX_site3016]” is lower in “gcPBM binding intensity (ln)” value: 9.65 for the first, 9.58 for the second.

First: AAATTTTTTTTTGTCATATGATGTTTGAACCCAAAT [CACACA_negctrl_site1659]
Second: TCCGTATATTTATACGCATGCATTATGAACATTGTT [TGCATGCA_site613]
The “gcPBM binding intensity (ln)” value of the first is lower: 9.49 for the first, 9.71 for the second.

Going from “TATATTATATATATATGTACATATGGCAAAACATTA [XGTACX_site7958]” to “AAAAAAAAAAAAAAATGTACCCATAAAATAAGCATT [XGTACX_site8576]”, the “gcPBM binding intensity (ln)” value rises from 9.62 to 9.77.

Compared with “AATCACAACGAACACACACACAAAAAAAAAAAAAAA [CACACA_site6790]”, “TTTTTTACAATTAACACACTCAAAAATAATATTAAA [CACACA_site5198]” is lower in “gcPBM binding intensity (ln)” value: 10.1 for the first, 9.41 for the second.

Compared with “AATTTTTTAAATGTGTGTACATATTATTTAAATAAT [XGTACX_site5967]”, “AAAAATTAAATGTACACACACCTTAAACAATGTCAT [CACACA_site6958]” is higher in “gcPBM binding intensity (ln)” value: 9.63 for the first, 9.98 for the second.

Going from “AAATACTGATTTGGTTGTACATGTGCACTATATAAC [XGTACX_site3795]” to “ATAAATATATTTATATGTACATATAATTTTACATAT [XGTACX_site5440]”, the “gcPBM binding intensity (ln)” value rises from 9.76 to 9.85.

Going from “TATAATCTAACATAATGTACATGTATATGCACTTTA [XGTACX_site369]” to “ATATATATATCTAATTGTACATATTTTATAAATAAG [XGTACX_site4840]”, the “gcPBM binding intensity (ln)” value falls from 9.67 to 9.46.

Going from “AAAAAAAAAAAAAAAAAAAAAAAAATCACACATTGG [TGCATGCA_negctrl_site412]” to “TTTTGGATGTATTATACATGCATATTATTATAATAT [TGCATGCA_site997]”, the “gcPBM binding intensity (ln)” value rises from 9.37 to 9.62.

First: ATATATCTACAAATATGTACACACACACATATATAT [XGTACX_site1075]
Second: AAAAAAAAAAAATAAAGTACTAAATAATACATTATA [XGTACX_site6203]
The “gcPBM binding intensity (ln)” value of the first is higher: 11.1 for the first, 9.53 for the second.

First: AGAAAAGAAATTAAATGTACACAACTATAACCAAAT [XGTACX_site8084]
Second: TGTACAACAATTTTTGCACACACCAAAACATAAAAT [CACACA_site1598]
The “gcPBM binding intensity (ln)” value of the first is lower: 9.86 for the first, 10.2 for the second.

Compared with “GAACAAAAATACTTATGTACACATTAGCAAGGAAAA [XGTACX_site5622]”, “TGTTTCTTATTTTTTTCACACACTAATCATTTCAAA [CACACA_site8695]” is higher in “gcPBM binding intensity (ln)” value: 9.71 for the first, 9.88 for the second.

Compared with “ATTATGTTATTATTTTGTACACATAAATAATACGTT [XGTACX_site816]”, “TCATATGTGAAACACACACACACACCCAAAAAAACA [CACACA_site3247]” is higher in “gcPBM binding intensity (ln)” value: 9.84 for the first, 10.6 for the second.

First: AAAAAAAATATCCGACGTACTATTTTCGTAGAAATA [XGTACX_site6292]
Second: TATACGCATATATACACACACATATATATATATATA [CACACA_site3416]
The “gcPBM binding intensity (ln)” value of the first is lower: 9.54 for the first, 9.98 for the second.

Going from “AAACAAAAAAGAAGCACACATATATATATATATATG [CACACA_site2456]” to “ATCTGAAAAATTAATAGTACAATTAATAATTAAACC [XGTACX_site8523]”, the “gcPBM binding intensity (ln)” value falls from 9.81 to 9.67.

First: TGTTAATTTCATTTTCTACACACCTATCCTTTTTTT [CACACA_site8157]
Second: ACAAATAAATATTCGCGTACTTATATAATATTACGA [XGTACX_site6428]
The “gcPBM binding intensity (ln)” value of the first is higher: 10 for the first, 9.66 for the second.

Compared with “AACAAACAAATAGTTTATTTTGATTTTTTTAAAAAT [CACACA_negctrl_site693]”, “ATATTTATATTTGTATGTACTTAAGTTTGTATGTAT [XGTACX_site3608]” is higher in “gcPBM binding intensity (ln)” value: 9.28 for the first, 9.73 for the second.

First: TTTTTAATTCAAAAAATAATATATTATATTTCAAAT [CACACA_negctrl_site737]
Second: ATATATTAGGGCAAATTTTCTGACATTACATCAGTC [CACACA_negctrl_site1166]
The “gcPBM binding intensity (ln)” value of the first is lower: 9.33 for the first, 9.46 for the second.

First: TATTTTTCTTTTTTCTGTACTCACACAAATAGAAGG [XGTACX_site7329]
Second: TTTTTACGTAAACAAAATAATTATATAATATTATTT [CACACA_negctrl_site1769]
The “gcPBM binding intensity (ln)” value of the first is lower: 9.37 for the first, 9.52 for the second.

Going from “CGTAAATTTTTTAAAAGTACAAAAAGATACGAGAAA [XGTACX_site8722]” to “TAAACAAATAAATAAACACACAATATATGTATATAT [CACACA_site3803]”, the “gcPBM binding intensity (ln)” value rises from 9.51 to 9.87.

With “TGTGTTAAATGTAATAGTGAATAAATAATTTTAACA [TGCATGCA_negctrl_site161]” the “gcPBM binding intensity (ln)” value was 9.6.
